# In the supplement of paper PMC3334620:
# The full ranking holds about 33,000 sequences; the median of “E-score (-0.5 to 0.5)” is about -0.011, and the highest 2% start at about 0.28. This is one part of the list.
# Target: T1, Gcr1 (UniProt P07261)
# T1 sequence: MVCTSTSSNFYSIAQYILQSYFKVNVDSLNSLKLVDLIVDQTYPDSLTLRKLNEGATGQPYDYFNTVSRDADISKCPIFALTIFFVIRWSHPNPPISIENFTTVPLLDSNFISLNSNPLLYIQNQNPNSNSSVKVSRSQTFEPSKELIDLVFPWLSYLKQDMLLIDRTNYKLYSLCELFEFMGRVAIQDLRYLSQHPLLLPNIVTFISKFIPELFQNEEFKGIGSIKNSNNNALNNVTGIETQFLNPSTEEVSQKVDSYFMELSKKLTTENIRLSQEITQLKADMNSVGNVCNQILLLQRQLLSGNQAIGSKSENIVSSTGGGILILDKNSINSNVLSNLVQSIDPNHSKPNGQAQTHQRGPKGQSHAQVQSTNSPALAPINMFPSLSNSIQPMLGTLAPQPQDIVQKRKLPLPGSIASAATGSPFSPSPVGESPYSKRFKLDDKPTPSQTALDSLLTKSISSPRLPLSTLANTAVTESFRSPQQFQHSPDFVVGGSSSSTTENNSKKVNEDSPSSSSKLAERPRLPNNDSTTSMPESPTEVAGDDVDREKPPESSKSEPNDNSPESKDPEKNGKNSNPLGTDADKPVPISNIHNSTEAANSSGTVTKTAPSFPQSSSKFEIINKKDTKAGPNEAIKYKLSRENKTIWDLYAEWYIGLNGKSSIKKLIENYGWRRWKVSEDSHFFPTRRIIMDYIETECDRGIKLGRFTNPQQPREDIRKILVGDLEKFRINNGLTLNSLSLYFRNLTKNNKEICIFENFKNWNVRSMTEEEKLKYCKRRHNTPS
# Assay: PBM E-score (8-mer binding enrichment) (E-score (-0.5 to 0.5)); higher = stronger / more preferred TF binding; most listed sequences are background and not binding sites
# Conditions: protein concentration: 100 nM; construct: GST-full length
# Procedure, shortened: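 Using PURExpress in vitro transcription/translation, GST-tagged yeast transcription factors were made in full-length or DNA-binding-domain form. These were applied at about 100-200 nM to double-stranded universal all-10-mer Agilent arrays, and bound protein was detected with fluorescent anti-GST. Scans were normalised with masliner before the Universal PBM Analysis Suite assigned E-scores to ungapped eight-base words pooled with their reverse complements.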
row,Sequence,PBM E-score
1,ATTATGTA,0.046
2,ATCTTAGA,0.15
3,CACAGCGA,0.04
4,CCGTTACC,0.0778
5,ATACGCTA,0.0157
6,AGACGGAG,-0.0738
7,GATATGAA,0.163
8,GTCGAATA,0.046
9,CATAATGG,0.122
10,ACTCTTCA,-0.15
11,ACCGGTTG,0.209
12,CGTCTCTC,0.0558
13,ACTCCCCC,-0.283
14,ACTTGAAC,-0.0446
15,AAGTATAC,-0.116
16,GTGACGCA,-0.184
17,ACGTCTGG,-0.0669
18,CACTAATG,0.0443
19,ACCAGTCT,-0.0823
20,ATAAGGCC,-0.329
21,AGTCGATA,-0.127
22,AGATGGGA,0.113
23,AGCAATGC,-0.271
24,AGACAGAT,0.0319
25,AACACGGC,-0.0258

row,Sequence,PBM E-score
1,AGTCTGGG,-0.0397
2,AACTCTTG,0.0172
3,TGGCTAAA,-0.0291
4,GTAAAAAA,-0.0598
5,GTGCGCCA,-0.0685
6,AAACGAAG,0.111
7,CGACGTTC,-0.286
8,GATCAAAA,0.0608
9,TGTCATAA,0.109
10,GCGACTCC,-0.133
11,CTCTGCAA,-0.0101
12,ATTCCTAA,0.284
13,GTGCGTGA,-0.00808
14,AATGCGTA,0.0382
15,ACTCTTTA,-0.0543
16,ACATCCTA,0.166
17,CAAGGCTA,-0.235
18,CTCGCGCC,-0.166
19,AGCGACTA,0.117
20,ATGCCGCC,-0.11
21,CTTGCATC,-0.221
22,AAAAGACC,-0.00226
23,CATGCAAC,-0.0896
24,CCAGCGAC,-0.0314
25,CTAATAAC,0.161

row,Sequence,PBM E-score
1,AGTATAGG,0.0498
2,ACGGAAAT,-0.0723
3,GAACGCAA,0.0412
4,ATCGTCGG,-0.119
5,ACTCGTTC,-0.0676
6,ACTGCGTC,-0.0392
7,CTTGCGAA,0.0573
8,CGCAACTC,-0.0691
9,GCGAGTCA,-0.212
10,TAGCACCA,0.323
11,ACCCAGGT,0.0419
12,AACAAAAA,0.12
13,AGGTTAGG,0.109
14,AAAAGGTG,0.215
15,ATACTAGG,0.122
16,ATCACGCG,0.00311
17,AAGGGCCC,0.00768
18,AGAAGTTA,0.0491
19,CCCCCGAG,-0.0739
20,AGGCCCGG,-0.216
21,AGCGTACA,-0.155
22,ATCATGGG,-0.0551
23,ACCAGCGT,-0.00704
24,CCCAATCG,-0.0423
25,GATGATAA,0.0119

row,Sequence,PBM E-score
1,ATTCAAGG,-0.113
2,AACTGAGA,-0.121
3,CACAAGCA,0.156
4,GGGCAACA,0.0933
5,GAGTGTAC,-0.169
6,GTAGCACA,-0.0396
7,AAACTGGT,0.178
8,GACACTGA,-0.121
9,CCTTGAAC,-0.294
10,ACCAATCC,-0.0145
11,ACAAGGCC,-0.215
12,CTGATTTA,0.0256
13,AGCTGGAT,0.119
14,CTTATACA,0.0877
15,GGTAAGAC,-0.228
16,CTCAAATA,0.0926
17,ACAATTAG,0.205
18,CCCGCACC,0.118
19,GATCATCC,-0.0802
20,ATGTTCCG,-0.119
21,AACCGGAT,0.255
22,CGGACGGA,-0.139
23,GGGGTTAA,-0.0298
24,AGAGTTTA,0.0347
25,CACGTCCG,-0.318

row,Sequence,PBM E-score
1,AGAGACAT,0.116
2,AGTGACGA,0.139
3,GCCATGAC,-0.171
4,GTAATTCA,0.206
5,ATGTACGA,-0.0468
6,CAGGAACG,0.118
7,AAAAGCGT,-0.0175
8,AAGCTATC,0.0651
9,ACCTCCAG,-0.133
10,CGACAGGC,-0.135
11,ACGGGTAG,-0.0238
12,ATGAAGTG,0.0228
13,GTAACCGA,-0.0211
14,ATCAGTGC,-0.049
15,CTGAGAGA,-0.139
16,ATGGTGTA,-0.0627
17,GGAGCACA,-0.173
18,AGCGCTCC,0.0561
19,AAAATTTG,0.0315
20,GGTGCGTA,0.157
21,CAAAAATC,-0.047
22,ATGCTAAA,0.111
23,AGCGTAAA,0.0979
24,AACACGCG,0.0183
25,CATCTTGC,0.123

row,Sequence,PBM E-score
1,ACCGCAAT,0.0212
2,CCACAGCA,0.0259
3,AGATAACT,-0.24
4,ATTTGCCA,-0.00458
5,CATATGCC,-0.0924
6,TCTCACCA,-0.0569
7,GCGGATCA,-0.0729
8,ATGGTTCG,-0.192
9,GGTCAATA,-0.0501
10,GAAGGTCC,-0.204
11,ACACCTGG,0.123
12,TGGGTTAA,-0.0918
13,ACGTTACC,-0.107
14,CCAGGGAA,0.0615
15,GTGTCACA,-0.0101
16,CGATGGGA,-0.0436
17,GTTCCAGA,0.257
18,ATTCAATC,-0.0693
19,GGGCCAAA,-0.0493
20,CGTTGATA,0.138
21,GCACATCA,0.0439
22,AGGAGATG,0.0682
23,TAGACTAA,-0.134
24,CACTGTGG,0.141
25,ACGTACAG,-0.174

row,Sequence,PBM E-score
1,ACGACGCG,0.0493
2,GCAGCAGC,0.307
3,AGTGACTC,0.00078
4,ACCACGCA,-0.0497
5,CATACGCC,0.0292
6,AGTTCTAA,-0.0873
7,CCCCAATA,0.0796
8,AAACCATC,-0.0212
9,AACCGACG,0.0222
10,CCGGAAGA,0.043
11,AGTAAGGC,-0.0549
12,GAGTTGGC,-0.135
13,AAAGGTCC,-0.113
14,ACCTTGGA,-0.00292
15,AGAGAGTG,-0.0865
16,ACTTATGA,0.0813
17,GCTTTTTA,0.0359
18,CTGGATAA,0.132
19,ACGTGAGA,-0.0931
20,AGGCCCCC,0.133
21,TAAGTCGA,-0.0789
22,GTTCGATA,0.0564
